Source: PubChem BioAssay (Tox21)
Where “and” joins values, the source holds several entries; their conditions need not be identical. Equal values may be shown once. Inconclusive means that the source gave no clear call. Such entries were picked first, then a sample of the others. For some of these results: Potencies of inconclusive entries are doubtful fits and often do not repeat. Calls of active or inactive are those of the source. Unless noted, calls follow the shape of the dose curve; as a rule, active = well fitted curve in the direction sought with a large enough effect in the repeat runs; inconclusive = weak or mixed curves; inactive = no such curve, though single readings can be large; an effect the other way counts as inactive or inconclusive.

Experiments:
[1] = qHTS assay to identify small molecule antagonists of the TGF-beta/Smad signaling pathway (AID 1346924; active = well fitted inhibition curve with a large enough effect in the signal ratio in the repeat runs, not every such curve was filed as active; inconclusive = weak or mixed curves; the % refers to the signal ratio; also: potency is read from the fitted curve at half-maximal effect); settings: SBE-bla HEK293T, TGF-beta/Smad reporter, beta-lactamase ratio; activity, negative = inhibition: at 76.8 µM (top of the series) unless noted
Method in brief: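 SBE-bla HEK 293T cells were plated overnight, then received compound in DMSO plus TGF-beta1 (added as a 0.25 ng/mL solution) and were incubated 5 h at 37 C. Beta-lactamase reporter activity was read after 2 h at room temperature with LiveBLAzer B/G FRET substrate (ex 405, em 460/530 nm).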

[2] = target: Cytochrome P450 2C9 (Homo sapiens) (UniProt P11712); assay: Cytochrome P450 Family 2 Subfamily C Member 9 (CYP2C9) small molecule antagonists: luciferase reporter qHTS assay (AID 1671198); also: nearly all actives have a fitted effect of over 50% in size; also: potency is read from the fitted curve at half-maximal effect
Chain of UniProt P11712 (P11712 whole entry, looked up): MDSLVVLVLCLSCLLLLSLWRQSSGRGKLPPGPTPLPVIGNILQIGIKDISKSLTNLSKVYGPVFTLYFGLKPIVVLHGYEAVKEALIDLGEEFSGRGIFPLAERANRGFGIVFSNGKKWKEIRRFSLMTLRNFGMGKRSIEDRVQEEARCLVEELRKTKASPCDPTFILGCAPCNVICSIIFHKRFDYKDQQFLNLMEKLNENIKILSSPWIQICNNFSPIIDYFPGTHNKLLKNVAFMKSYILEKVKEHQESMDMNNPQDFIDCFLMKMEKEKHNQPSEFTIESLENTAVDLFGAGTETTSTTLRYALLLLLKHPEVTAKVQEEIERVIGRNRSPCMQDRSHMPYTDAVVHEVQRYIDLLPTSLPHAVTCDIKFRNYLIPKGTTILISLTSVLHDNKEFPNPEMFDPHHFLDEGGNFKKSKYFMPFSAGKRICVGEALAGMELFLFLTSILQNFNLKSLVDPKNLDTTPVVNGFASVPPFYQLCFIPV
Method in brief: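 CYP2C9 activity was measured with a P450-Glo proluciferin substrate. Enzyme–substrate mix was held with compound for 10 min at room temperature, then NADPH regeneration solution was added for 1 h at 37C. Luciferin product was read as luminescence.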

[3] = target: Cytochrome P450 1A2 (Homo sapiens) (UniProt P05177); assay: Cytochrome P450 Family 1 Subfamily A Member 2 (CYP1A2) small molecule antagonists: luciferase reporter qHTS assay (AID 1671199); also: nearly all actives have a fitted effect of over 50% in size; also: potency is read from the fitted curve at half-maximal effect
Chain of UniProt P05177 (P05177 whole entry, looked up): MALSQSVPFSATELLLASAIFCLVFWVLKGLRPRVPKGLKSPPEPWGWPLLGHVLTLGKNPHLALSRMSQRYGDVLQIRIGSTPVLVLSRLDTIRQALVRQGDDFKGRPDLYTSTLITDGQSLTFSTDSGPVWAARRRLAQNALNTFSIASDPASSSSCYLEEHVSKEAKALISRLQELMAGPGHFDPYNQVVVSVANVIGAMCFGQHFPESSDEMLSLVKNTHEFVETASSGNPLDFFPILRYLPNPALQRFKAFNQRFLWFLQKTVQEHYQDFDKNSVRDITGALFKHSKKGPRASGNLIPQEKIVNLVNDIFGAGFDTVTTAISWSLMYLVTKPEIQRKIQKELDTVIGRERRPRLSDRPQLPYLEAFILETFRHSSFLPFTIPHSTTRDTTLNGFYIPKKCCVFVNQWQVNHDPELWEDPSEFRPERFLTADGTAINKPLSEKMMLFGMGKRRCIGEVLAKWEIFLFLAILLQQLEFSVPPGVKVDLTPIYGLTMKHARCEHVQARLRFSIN
Method in brief: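 Signal from luciferin formed by CYP1A2 from a proluciferin substrate is read as luminescence, expressed in relative luminescence units. Compounds sit with enzyme 10 min, NADPH-driven reaction runs 1 h, all at room temperature.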

[4] = target: Cytochrome P450 3A4 (Homo sapiens) (UniProt P08684); assay: Cytochrome P450 Family 3 Subfamily A Member 4 (CYP3A4) small molecule antagonists: luciferase reporter qHTS assay (AID 1671201); also: nearly all actives have a fitted effect of over 50% in size; also: potency is read from the fitted curve at half-maximal effect
Chain of UniProt P08684 (P08684 whole entry, looked up): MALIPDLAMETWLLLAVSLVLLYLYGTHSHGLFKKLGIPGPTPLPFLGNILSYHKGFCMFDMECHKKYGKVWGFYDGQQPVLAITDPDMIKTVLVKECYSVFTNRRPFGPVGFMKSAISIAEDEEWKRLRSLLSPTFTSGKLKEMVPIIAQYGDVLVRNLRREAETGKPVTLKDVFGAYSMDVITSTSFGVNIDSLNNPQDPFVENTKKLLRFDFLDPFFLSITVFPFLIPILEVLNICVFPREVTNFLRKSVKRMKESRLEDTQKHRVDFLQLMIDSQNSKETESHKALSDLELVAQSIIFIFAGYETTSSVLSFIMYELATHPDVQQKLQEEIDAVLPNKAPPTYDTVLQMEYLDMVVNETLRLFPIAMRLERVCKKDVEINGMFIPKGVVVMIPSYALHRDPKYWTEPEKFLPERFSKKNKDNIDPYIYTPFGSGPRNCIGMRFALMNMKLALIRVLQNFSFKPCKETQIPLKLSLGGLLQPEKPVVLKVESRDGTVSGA
Method in brief: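 Relative luminescence units after 20 min with luciferin detection reagent served as read-out. Beforehand, CYP3A4 turned over a proluciferin substrate for 1 h at room temperature with NADPH regeneration, following 10 min compound preincubation.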

[5] = Human pregnane X receptor (PXR) small molecule agonists, qHTS cell viability counter screen (AID 1346977); also: nearly all actives have a fitted effect of over 50% in size; also: potency is read from the fitted curve at half-maximal effect
Method in brief: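 Viability counter screen: CellTiter-Fluor signal in PXR-Luc HepG2 cells, 24hr compound exposure, 37C, 5% CO2.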

[6] = target: Cytochrome P450 2C19 (Homo sapiens) (UniProt P33261); assay: Cytochrome P450 Family 2 Subfamily C Member 19 (CYP2C19) small molecule antagonists: luciferase reporter qHTS assay (AID 1671197); also: nearly all actives have a fitted effect of over 65% in size; also: potency is read from the fitted curve at half-maximal effect
Chain of UniProt P33261 (P33261 whole entry, looked up): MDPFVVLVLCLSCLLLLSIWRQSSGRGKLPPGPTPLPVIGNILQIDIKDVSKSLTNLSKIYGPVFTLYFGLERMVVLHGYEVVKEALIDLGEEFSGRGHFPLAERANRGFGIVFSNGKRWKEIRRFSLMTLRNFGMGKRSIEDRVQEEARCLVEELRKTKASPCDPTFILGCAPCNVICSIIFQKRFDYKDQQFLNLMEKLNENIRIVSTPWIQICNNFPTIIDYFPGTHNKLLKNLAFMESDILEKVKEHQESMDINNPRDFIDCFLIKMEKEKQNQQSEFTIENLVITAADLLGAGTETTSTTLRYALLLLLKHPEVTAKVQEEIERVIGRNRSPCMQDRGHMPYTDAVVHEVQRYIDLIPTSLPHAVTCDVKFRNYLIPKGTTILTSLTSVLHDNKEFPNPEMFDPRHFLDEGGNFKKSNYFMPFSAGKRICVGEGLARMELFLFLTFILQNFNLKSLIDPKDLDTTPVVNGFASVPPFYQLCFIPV
Method in brief: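 CYP2C19 P450-Glo, 1536-well qHTS. Cpd + enzyme/proluciferin substrate 10 min RT; + NADPH regen, 37C 1 h; stop with luciferin detection reagent, 20 min RT, luminescence (RLU). Pos ctrl ketoconazole.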

[7] = Caspase-3/7 induction in CHO-K1 cells by small molecules, qHTS cell viability counter screen (AID 1346979); also: nearly all actives have a fitted effect of over 35% in size; also: potency is read from the fitted curve at half-maximal effect
Method in brief: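 Viability readout by fluorescence (CellTiter-Fluor) on wild-type CHO-K1 cells exposed for 16hr at 37C and 5% CO2 to compounds delivered in DMSO; reagent incubated 1hr before reading.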

[8] = target: Cytochrome P450 2D6 (Homo sapiens) (UniProt P10635); assay: Cytochrome P450 Family 2 Subfamily D Member 6 (CYP2D6) small molecule antagonists: luciferase reporter qHTS assay (AID 1671196); also: nearly all actives have a fitted effect of over 50% in size; also: potency is read from the fitted curve at half-maximal effect
Chain of UniProt P10635 (P10635 whole entry, looked up): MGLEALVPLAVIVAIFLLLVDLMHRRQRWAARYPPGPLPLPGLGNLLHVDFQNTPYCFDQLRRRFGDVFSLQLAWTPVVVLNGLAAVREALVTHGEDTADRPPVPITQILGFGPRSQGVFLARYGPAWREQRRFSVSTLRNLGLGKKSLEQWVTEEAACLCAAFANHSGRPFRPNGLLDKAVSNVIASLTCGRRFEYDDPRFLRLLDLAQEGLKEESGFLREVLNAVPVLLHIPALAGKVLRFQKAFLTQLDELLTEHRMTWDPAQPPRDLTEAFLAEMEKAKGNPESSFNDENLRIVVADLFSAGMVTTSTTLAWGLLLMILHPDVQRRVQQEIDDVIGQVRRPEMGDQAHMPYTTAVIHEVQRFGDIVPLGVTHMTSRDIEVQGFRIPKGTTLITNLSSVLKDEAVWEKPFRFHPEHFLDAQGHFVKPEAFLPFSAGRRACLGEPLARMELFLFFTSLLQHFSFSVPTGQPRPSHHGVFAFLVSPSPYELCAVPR
Method in brief: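 Inhibition of CYP2D6 was gauged by loss of luminescence, since light produced tracks the luciferin generated from a proluciferin substrate. A 10 min room-temperature preincubation preceded 1 h NADPH-supported turnover.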

[9] = Caspase-3/7 induction in HepG2 cells by small molecules, qHTS cell viability counter screen (AID 1346981); also: nearly all actives have a fitted effect of over 30% in size; also: potency is read from the fitted curve at half-maximal effect
Method in brief: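 Counter screen for cytotoxicity: HepG2 exposed 16 hr to compounds, then CellTiter-Fluor viability signal (fluorescence, 1 hr reagent incubation).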

[10] = target: Nuclear receptor subfamily 1 group I member 2 (Homo sapiens) (UniProt O75469); assay: Human pregnane X receptor (PXR) activation by small molecules, qHTS assay (AID 1346985); also: potency is read from the fitted curve at half-maximal effect; nearly all actives have a fitted effect of over 40% in size
Method in brief: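 DPX-2 cells (HepG2 co-transfected with a PXR response element and a CYP3A4-promoter luciferase construct) were seeded at 2,000 per well, rested 5 hr at 37C, then exposed to DMSO-dissolved compounds for 24 hr. Activation was read as luciferase luminescence.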

[11] = target: Nuclear receptor subfamily 1 group I member 2 (Homo sapiens) (UniProt O75469); assay: Human pregnane X receptor (PXR) small molecule agonists, qHTS assay (AID 1346982); also: potency is read from the fitted curve at half-maximal effect; nearly all actives have a fitted effect of over 35% in size
Method in brief: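 Luminescence (ONE-Glo, 30 min RT) after 24 hr compound exposure of PXR-Luc HepG2 cells; cells rested 5 hr post-plating in 5% charcoal-stripped FBS medium.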

[12] = Caspase-3/7 induction in HepG2 cells by small molecules, qHTS assay (AID 1346978); also: % is scaled to controls: 0 for no effect and ±100 for the full control effect; nearly all actives have a fitted effect of over 15% in size
Method in brief: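 Wild-type HepG2 cells (2,000/well) were settled 5 h at 37 C, 5% CO2, then exposed to compounds in DMSO for 17 h. Caspase-3/7 activity was read by luminescence 30 min after adding Caspase-Glo 3/7 reagent at room temperature.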

[13] = target: Nuclear receptor subfamily 1 group I member 2 (Rattus norvegicus) (UniProt Q9R1A7); assay: Rat pregnane X receptor (rPXR) activation by small molecules, qHTS assay (AID 1346983); settings: rPXR luciferase reporter cells, One-Glo luminescence, 24 h; max activation: stronger effect = higher value; also: potency is read from the fitted curve at half-maximal effect; nearly all actives have a fitted effect of over 20% in size
Chain of UniProt Q9R1A7 (Q9R1A7 whole entry, looked up): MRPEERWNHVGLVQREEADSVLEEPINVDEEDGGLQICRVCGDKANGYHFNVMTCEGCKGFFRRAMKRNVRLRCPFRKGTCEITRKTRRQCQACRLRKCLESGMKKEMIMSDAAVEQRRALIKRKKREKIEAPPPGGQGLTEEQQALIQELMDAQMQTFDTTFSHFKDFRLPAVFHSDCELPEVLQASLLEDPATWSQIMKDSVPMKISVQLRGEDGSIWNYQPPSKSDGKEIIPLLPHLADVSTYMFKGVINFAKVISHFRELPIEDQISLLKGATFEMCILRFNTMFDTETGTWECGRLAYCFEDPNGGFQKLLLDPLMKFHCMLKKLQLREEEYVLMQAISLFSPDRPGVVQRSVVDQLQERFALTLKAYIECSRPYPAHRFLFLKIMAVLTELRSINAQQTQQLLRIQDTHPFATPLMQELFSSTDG
Method in brief: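 Cell-based rPXR luciferase reporter assay, 2,000 cells per well, rested 5hr at 37 C before compound addition in DMSO, then 24 hr at 37 C. One-Glo reagent was added and luminescence read after 30 min at room temperature.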

[14] = target: Nuclear receptor subfamily 1 group I member 2 (Homo sapiens) (UniProt O75469); assay: CYP3A4 induction through human pregnane X receptor (PXR) by small molecules, qHTS assay (AID 1346984); also: potency is read from the fitted curve at half-maximal effect; nearly all actives have a fitted effect of over 40% in size
Method in brief: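 DPX-2 reporter cells; 24h cpd, 37C; Luciferin-IPA 3uM final x3h; One-Glo 30 min RT; lumi read.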

[15] = target: Voltage-gated inwardly rectifying potassium channel KCNH2 (Homo sapiens) (UniProt Q12809); assay: Human Ether-a-go-go-Related Gene (hERG) channel small molecule antagonists: fluorescence cell-based qHTS assay (AID 1671200)
Chain of UniProt Q12809 (Q12809 whole entry, looked up): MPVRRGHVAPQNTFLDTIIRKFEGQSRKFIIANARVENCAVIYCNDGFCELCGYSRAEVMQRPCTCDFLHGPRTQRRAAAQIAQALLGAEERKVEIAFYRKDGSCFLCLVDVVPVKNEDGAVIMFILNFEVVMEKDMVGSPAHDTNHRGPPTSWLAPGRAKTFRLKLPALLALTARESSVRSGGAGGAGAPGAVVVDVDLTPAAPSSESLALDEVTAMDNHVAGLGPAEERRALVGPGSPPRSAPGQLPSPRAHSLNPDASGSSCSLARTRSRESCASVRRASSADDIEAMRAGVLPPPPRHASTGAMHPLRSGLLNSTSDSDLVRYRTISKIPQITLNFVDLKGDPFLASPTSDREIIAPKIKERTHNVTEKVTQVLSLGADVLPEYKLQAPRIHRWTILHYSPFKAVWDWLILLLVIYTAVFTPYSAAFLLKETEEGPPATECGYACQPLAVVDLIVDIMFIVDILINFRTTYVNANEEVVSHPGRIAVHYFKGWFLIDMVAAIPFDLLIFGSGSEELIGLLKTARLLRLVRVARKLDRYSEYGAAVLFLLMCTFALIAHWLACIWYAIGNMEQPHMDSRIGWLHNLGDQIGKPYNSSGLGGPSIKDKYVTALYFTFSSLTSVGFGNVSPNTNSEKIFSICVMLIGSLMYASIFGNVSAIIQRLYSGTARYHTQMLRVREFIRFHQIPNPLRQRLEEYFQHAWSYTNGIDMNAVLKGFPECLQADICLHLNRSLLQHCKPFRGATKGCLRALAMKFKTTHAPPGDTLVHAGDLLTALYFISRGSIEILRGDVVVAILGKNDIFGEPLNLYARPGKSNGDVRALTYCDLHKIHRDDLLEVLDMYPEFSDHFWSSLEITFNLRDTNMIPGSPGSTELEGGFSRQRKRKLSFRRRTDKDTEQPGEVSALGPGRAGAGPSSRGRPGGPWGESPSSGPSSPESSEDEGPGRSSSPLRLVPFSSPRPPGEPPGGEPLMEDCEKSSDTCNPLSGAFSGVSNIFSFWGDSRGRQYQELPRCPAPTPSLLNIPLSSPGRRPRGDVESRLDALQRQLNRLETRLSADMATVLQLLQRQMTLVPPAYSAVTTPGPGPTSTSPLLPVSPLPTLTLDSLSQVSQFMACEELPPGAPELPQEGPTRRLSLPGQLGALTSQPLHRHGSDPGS
Method in brief: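 Thallium served as the potassium surrogate; its influx into dye-loaded U2OS cells carrying the channel was measured by fluorescence over 2 min.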
Tags tell the direction and shape of the fitted curve or compound fluorescence and quenching.

For CCCCCOc1ccc(C2SC(=O)NC2=O)cc1OCC (stereo unspecified), which Potency [1] is on record?
The Potency was inconclusive: 21.3 µM [fluorescent, partial curve].

What about the Potency [2] of the same compound?
Its Potency is active: 9.77 µM.

And the Potency [3]?
The Potency was inconclusive: 36.3 µM [inhibitor, partial curve, poor fit].

And the Potency [4]?
The Potency was inconclusive: 34.7 µM [inhibitor, partial curve, poor fit].

With CN1CCC(=C2c3ccccc3CCc3cccnc32)CC1 as the compound, how does the Potency [5] read?
The Potency was inconclusive: 29.8 µM [cytotoxic].

For CN(C)CCCNCCC#N, which activity, negative = inhibition [1] is on record?
The activity, negative = inhibition was inconclusive: -36%.

And the Potency [6]?
Its Potency is inconclusive: 89.4 µM [inhibitor, single point].

And the Potency [3]?
Its Potency is inconclusive: 39.9 µM [inhibitor, partial curve].

For CC(C)C(=O)OCCc1ccccc1, which activity, negative = inhibition [1] is on record?
Its activity, negative = inhibition is inconclusive: 11.8%.

And the Potency [2]?
Its Potency is inconclusive: 79.6 µM [inhibitor, partial curve].

For C[C@@H](O)[C@H]1C(=O)N2C(C(=O)O)=C(SCCN=CN)C[C@H]12, which activity, negative = inhibition [1] is on record?
The activity, negative = inhibition was inconclusive: -1.46% [at 35.3 µM].

And the Potency [3]?
The Potency was “inactive”.

For CN(C)CCOC(c1ccccc1)c1ccccc1, which Potency [5] is on record?
The Potency was inconclusive: 44.7 µM [cytotoxic, partial curve] and inconclusive: 19.3 µM [cytotoxic, partial curve].

Which Potency [5] does the source give for CCCCNc1cc(C(=O)O)cc(S(N)(=O)=O)c1Oc1ccccc1 here?
Its Potency is “inactive”.

Which activity, negative = inhibition [1] does the source give for O=C(Cl)c1ccc(C(=O)Cl)cc1 here?
The activity, negative = inhibition was inconclusive: -24%.

And the Potency [2]?
Its Potency is “inactive and inconclusive: 56.4 µM [inhibitor, partial curve, poor fit]”.

What about the Potency [4] of the same compound?
Its Potency is inconclusive: 31.8 µM [inhibitor, single point].

Which Potency [5] does the source give for CN1[C@@H]2CC[C@H]1CC(OC(=O)C(CO)c1ccccc1)C2 (stereo partly specified) here?
The Potency was inconclusive: 27.4 µM [cytotoxic, partial curve].

With O=C1c2cccc3c2[C@H](CCC3)CN1[C@@H]1CN2CCC1CC2 as the compound, how does the Potency [5] read?
Its Potency is inconclusive: 26.6 µM [cytotoxic, partial curve].

And the Potency [7]?
Its Potency is inconclusive: 33.5 µM [cytotoxic].

And the Potency [8]?
The Potency was inconclusive: 30.9 µM [inhibitor, partial curve].

And the Potency [6]?
The Potency was “inactive”.

Which Potency [5] does the source give for Cc1cc(O)c2c(O)c3c(O)cccc3cc2c1 here?
Its Potency is “inactive”.

What about the Potency [7] of the same compound?
The Potency was inconclusive: 37.6 µM [cytotoxic, single point].

And the Potency [9]?
Its Potency is “inactive”.

What about the Potency [3] of the same compound?
Its Potency is inconclusive: 18.2 µM [inhibitor, full curve].

With Cc1c(C)n(CCN(C)C)c2ccc(C(=O)OCCN(C)C)cc12 as the compound, how does the Potency [5] read?
Its Potency is inconclusive: 26.6 µM [cytotoxic, partial curve].

And the Potency [7]?
Its Potency is inconclusive: 33.5 µM [cytotoxic, single point].

What about the Potency [10] of the same compound?
The Potency was inconclusive: 28.2 µM [activator, single point].

For CCCCCCCCCCC, which Potency [5] is on record?
The Potency was “inactive”.

And the Potency [7]?
The Potency was “inactive”.

What about the Potency [8] of the same compound?
The Potency was “inactive”.

For CN(C)CCN(Cc1ccc(Cl)cc1)c1ccccn1, which Potency [5] is on record?
Its Potency is inconclusive: 29.8 µM [cytotoxic, partial curve].

What about the Potency [7] of the same compound?
Its Potency is inconclusive: 26.6 µM [cytotoxic, partial curve, poor fit].

And the Potency [11]?
The Potency was inconclusive: 29.8 µM [activator, partial curve, poor fit].

And the Potency [3]?
The Potency was inconclusive: 27.5 µM [inhibitor, partial curve].

Which results are given for CCCCCCCCCCCCOCCO?
Potency [5]: inconclusive: 68.6 µM [cytotoxic, single point]; Potency [7]: inconclusive: 68.6 µM [cytotoxic, single point] and inconclusive: 23.7 µM [cytotoxic, partial curve]

With CCOC(=O)[C@@H](C)Oc1ccc(Oc2nc3ccc(Cl)cc3o2)cc1 as the compound, how does the Potency [5] read?
The Potency was “inactive”.

What about the Potency [12] of the same compound?
The Potency was “inactive”.

What about the Potency [11] of the same compound?
The Potency was active: 61.1 µM.

And the Potency [3]?
Its Potency is inconclusive: 7.96 µM [inhibitor, full curve].

And the Potency [4]?
The Potency was “inactive”.

For C[C@H]1C[C@H]2[C@@H]3CCC4=CC(=O)C=C[C@]4(C)[C@@]3(Cl)[C@@H](O)C[C@]2(C)[C@@]1(O)C(=O)CO, which Potency [5] is on record?
Its Potency is “inactive”.

What about the Potency [7] of the same compound?
Its Potency is inconclusive: 33.5 µM [cytotoxic, single point].

What about the Potency [11] of the same compound?
The Potency was inconclusive: 21.1 µM [activator, partial curve].

What about the Potency [13] of the same compound?
Its Potency is active: 5.62 µM.

And the Potency [14]?
The Potency was active: 15.8 µM.

And the Potency [10]?
Its Potency is active: 11.2 µM.

What about the Potency [6] of the same compound?
Its Potency is inconclusive: 43.6 µM [inhibitor, single point].

And the Potency [15]?
Its Potency is inconclusive: 21.3 µM [inhibitor, single point].

For Oc1ccc(/C=C/c2cc(O)cc(O)c2)cc1, which Potency [5] is on record?
The Potency was inconclusive: 70.8 µM [cytotoxic, single point].

And the Potency [7]?
The Potency was inconclusive: 33.5 µM [cytotoxic, partial curve, poor fit].

And the Potency [10]?
Its Potency is inconclusive: 12.6 µM [activator, partial curve, poor fit].

With CN(C)C(=O)NC1(c2ccccc2)CCN(CCC[C@]2(c3ccc(Cl)c(Cl)c3)CCCN(C(=O)c3ccccc3)C2)CC1 as the compound, how does the Potency [5] read?
Its Potency is inconclusive: 14.6 µM [cytotoxic, single point].

What about the Potency [7] of the same compound?
Its Potency is inconclusive: 13 µM [cytotoxic, partial curve].

And the Potency [9]?
Its Potency is inconclusive: 13 µM [cytotoxic, partial curve].

And the Potency [6]?
The Potency was inconclusive: 19 µM [inhibitor, single point].

What about the Potency [2] of the same compound?
The Potency was inconclusive: 15.1 µM [inhibitor, partial curve].

What does the source list for CC1=NN(c2cc(Cl)c(S(=O)(=O)O)cc2Cl)C(=O)C1N=Nc1ccc(S(=O)(=O)O)cc1 (stereo unspecified)?
Potency [5]: active: 54.5 µM; Potency [7]: active: 54.5 µM
